# Experimental data from paper PMC11995724, “Antibiotic target discovery by integrated phenotypic and activity-based profiling of electrophilic fragments” (Cell chemical biology, 2025).
# Screen size: about 3,200 compounds; about 75 (2%) showed an effect of 50% or more. The list shows a part of the results.
# System: T1, S. aureus MSSA476
# T1 construct: MSSA476
# Set-up: species or system S. aureus MSSA476 (TSB) or V. cholerae SAD30 (LB); 384-well bacterial growth screen at 25 uM, OD600 relative to DMSO control
# Conditions: relative growth, OD600, TSB; 25 µM; inhibitor
row,SMILES,% of control remaining [%]
1,"O=C(CCl)NC1CCCCCC1 [5-H16, 2-chloro-N-cycloheptylacetamide]",82.6958
2,"O=C(CCl)Nc1ccc2c(c1)oc1ccccc12 [6-A13, 2-chloro-N-{8-oxatricyclo[7.4.0.0,2,7]trideca-1(9),2(7),3,5,10,12-hexaen-5-yl}acetamide]",102.098
3,"C=CC(=O)NCCc1ccc(S(N)(=O)=O)cc1 [2-B13, N-[2-(4-sulfamoylphenyl)ethyl]prop-2-enamide]",155.614
4,"C=CC(=O)Nc1ccc(N2CCCCC2)c(F)c1 [2-I22, N-[3-fluoro-4-(piperidin-1-yl)phenyl]prop-2-enamide]",91.2097
5,"CN(CC(=O)Nc1ccc(Cl)c(C(F)(F)F)c1)C(=O)CCl [4-E19, 2-chloro-N-({[4-chloro-3-(trifluoromethyl)phenyl]carbamoyl}methyl)-N-methylacetamide]",114.721
6,"Cc1nn(C)c(C)c1C=C(C#N)C(=O)Nc1ccccc1Cl [9-F11, N-(2-chlorophenyl)-2-cyano-3-(1,3,5-trimethyl-1H-pyrazol-4-yl)prop-2-enamide]",81.4981
7,"CN(CC(=O)NC1CCC(O)CC1)C(=O)CCl (centres unmarked) [7-L08, 2-chloro-N-{[(4-hydroxycyclohexyl)carbamoyl]methyl}-N-methylacetamide]",92.3077
8,"O=C(CCl)Nc1cccc(NC(=O)c2ccccc2)c1 [6-A03, N-[3-(2-chloroacetamido)phenyl]benzamide]",76.1463
9,"N#CC(=Cc1ccsc1)C(=O)Nc1ccccc1Cl [9-O05, N-(2-chlorophenyl)-2-cyano-3-(thiophen-3-yl)prop-2-enamide]",99.176
10,"CC(Cl)C(=O)N(C)C[C@@H]1C[C@H](F)CN1c1ccnc(N(C)C)n1 (stereo partly drawn) [7-K16, 2-chloro-N-{[(2S,4S)-1-[2-(dimethylamino)pyrimidin-4-yl]-4-fluoropyrrolidin-2-yl]methyl}-N-methylpropanamide]",97.6452
11,"O=C(CCl)N(Cc1ccco1)c1ccccc1 [4-L14, 2-chloro-N-[(furan-2-yl)methyl]-N-phenylacetamide]",118.914
12,"C=CC(=O)N(C)CC(=O)N1CCN(C(=O)C2CCCCC2)CC1 [3-O10, N-[2-(4-cyclohexanecarbonylpiperazin-1-yl)-2-oxoethyl]-N-methylprop-2-enamide]",98.5633
13,"C=CC(=O)N1CCC(C(=O)Nc2ccc3c(c2)CCN3C(N)=O)CC1 [3-E16, 5-[1-(prop-2-enoyl)piperidine-4-amido]-2,3-dihydro-1H-indole-1-carboxamide]",96.8219
14,"C=CC(=O)N1CCC(C(=O)NCc2ccccc2-n2cccn2)CC1 [3-N03, 1-(prop-2-enoyl)-N-{[2-(1H-pyrazol-1-yl)phenyl]methyl}piperidine-4-carboxamide]",97.1702
15,"CC(Cl)C(=O)Nc1cccc(S(=O)(=O)N(C)C)c1 (centres unmarked) [5-A07, 2-chloro-N-[3-(dimethylsulfamoyl)phenyl]propanamide]",96.9035
16,"CC(Cl)C(=O)Nc1ccccc1C#N (centres unmarked) [6-A11, 2-chloro-N-(2-cyanophenyl)propanamide]",83.6585
17,"C=CC(=O)N1CCC(CC(C)(C)C)C1 (centres unmarked) [2-O19, 1-[3-(2,2-dimethylpropyl)pyrrolidin-1-yl]prop-2-en-1-one]",113.838
18,"C=CC(=O)NCc1ccsc1-n1cccc1 [1-K08, N-{[2-(1H-pyrrol-1-yl)thiophen-3-yl]methyl}prop-2-enamide]",111.824
19,"C=CC(=O)N1CCC(Cc2nc3ccc(F)cc3o2)CC1 [3-O07, 1-{4-[(6-fluoro-1,3-benzoxazol-2-yl)methyl]piperidin-1-yl}prop-2-en-1-one]",87.4184
20,"C=CC(=O)N1CC(S(=O)(=O)N2CCOCC2)C1 [2-A16, 1-[3-(morpholine-4-sulfonyl)azetidin-1-yl]prop-2-en-1-one]",154.221
21,"Cc1nn(C)c(C)c1NC(=O)C(C)Cl (centres unmarked) [6-C07, 2-chloro-N-(1,3,5-trimethyl-1H-pyrazol-4-yl)propanamide]",84.6829
22,"N#CC(=Cc1cnc(-c2ccccc2)nc1)C(=O)NCc1ccco1 [9-M14, 2-cyano-N-[(furan-2-yl)methyl]-3-(2-phenylpyrimidin-5-yl)prop-2-enamide]",90.1873
23,"N#CC(=Cc1cccc(Cl)c1)C(=O)NCc1ccccc1 [9-L13, N-benzyl-3-(3-chlorophenyl)-2-cyanoprop-2-enamide]",76.7041
24,"C=CC(=O)N(C)CC(=O)NC1CCCN(c2cc(C)nc(C)n2)C1 (centres unmarked) [3-A12, N-({[1-(2,6-dimethylpyrimidin-4-yl)piperidin-3-yl]carbamoyl}methyl)-N-methylprop-2-enamide]",162.995
25,"Cc1ccc(C(CNC(=O)C(C)Cl)N2CCOCC2)s1 (centres unmarked) [7-N13, 2-chloro-N-[2-(5-methylthiophen-2-yl)-2-(morpholin-4-yl)ethyl]propanamide]",81.3187
26,"Cc1ccc(-n2c(C)cc(C(=O)CCl)c2C)cc1F [10-C06, 2-chloro-1-[1-(3-fluoro-4-methylphenyl)-2,5-dimethyl-1H-pyrrol-3-yl]ethan-1-one]",-0.3125
27,"COc1cc(C=C(C#N)C(=O)Nc2ccc3c(c2)OCCO3)ccc1O [8-N06, 2-cyano-N-(2,3-dihydro-1,4-benzodioxin-6-yl)-3-(4-hydroxy-3-methoxyphenyl)prop-2-enamide]",100.913
28,"COc1ccc(C(C)(C)C)cc1NC(=O)CCl [4-C07, N-(5-tert-butyl-2-methoxyphenyl)-2-chloroacetamide]",102.525
29,"CC(Cl)C(=O)Nc1cccc(Cl)c1 (centres unmarked) [5-H22, 2-chloro-N-(3-chlorophenyl)propanamide]",77.9599
